Measured values: PubChem BioAssay AID1508642 (National Center for Advancing Translational Sciences (NCATS), 2021)
Among all 43,000 compounds or so, about 200 (0.47%) were called active. Not shown: some 12% with an inconclusive outcome. Calls follow the shape of the dose curve; as a rule, active = well fitted cell-killing curve with a large enough effect; inconclusive = small, poorly fitted or top-dose-only effect, or effect the other way; inactive = flat fitted curve, though single readings scatter. This is one part of the list.

Experiment: Cell viability qHTS assay in S16 Pmp22-F2sN cells; also: nearly all actives have a fitted effect of over 65% in size
Details: S16 Pmp22-F2sN Schwann cells viability, CellTiter-Glo, 24 h; series mostly up to 57.5 µM; activity change, negative = cytotoxicity: at the top concentration
Outline: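 Used to flag compounds lowering reporter output through toxicity, this quantitative HTS measures ATP-based CellTiter-Glo luminescence in S16 Pmp22-F2sN Schwann cells after 24 h compound exposure at 37C.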
% is scaled to controls: 0 for no effect and ±100 for the full control effect.

Row | SMILES | activity change, negative = cytotoxicity
1 | Cc1cccc(CN2C(=O)c3ccccc3S(=O)(=O)c3ccc(C(=O)N4CCN(c5cc(C)ccc5C)CC4)cc32)c1 | inactive: 12.9%
2 | CCc1ccc(-c2cc3c(N4CCN(c5ccccc5)CC4)nccn3n2)cc1 | inactive: -5.12%
3 | COc1cccc(C(=O)n2nc(-c3ccco3)nc2NCc2cccs2)c1 | inactive: 4.29%
4 | COc1ccc(Br)cc1CNC(=O)c1ccc2c(c1)nc1n2CCCCC1 | inactive: 4.18%
5 | Cc1c(C(=O)NCc2ccccc2Cl)sc2nc3n(c(=O)c12)CCC3 | inactive: 12.9%
6 | COc1ccc(N(CC(=O)NCc2ccc(C)cc2)S(=O)(=O)c2c(C)[nH]c(=O)[nH]c2=O)cc1 | inactive: 7.66%
7 | Cc1cc(C)cc(N2CCn3c2nc2c3c(=O)n(CCc3ccccc3)c(=O)n2C)c1 | inactive: 3.96%
8 | Cc1cccc(-c2nc3nc(C)cc(N4CCN(c5ccccc5)CC4)n3n2)c1 | inactive: 1.91%
9 | COc1ccc(NC(=O)N2CCN(c3cc(-c4noc(C)n4)ccc3C)CC2)c(OC)c1 | inactive: -4.22%
10 | CC(C)(C)C1CCc2c(sc(NC(=O)c3ccncc3)c2C(=O)Nc2ccccc2Cl)C1 (stereo not given) | inactive: -2.51%
11 | COc1cccc(N2CCN(Cc3nnc(-c4ccc5c(c4)OCO5)o3)CC2)c1 | inactive: 1.09%
12 | COc1ccc(NS(=O)(=O)c2ccc(NS(=O)(=O)c3ccc4c(c3)OCCO4)cc2)cc1 | inactive: 10.9%
13 | CCOC(=O)c1c(C)oc2nc(C)nc(NC(C)c3ccccc3)c12 (stereo not given) | inactive: -4.89%
14 | CC1=C(C(=O)OCc2ccc(C)cc2)C(c2ccccc2Cl)CC(=O)N1 (stereo not given) | inactive: 18.7%
15 | Cc1cccc(OCC(=O)Nc2ccc3c(c2)nc(CCNC(=O)c2ccco2)n3C)c1 | inactive: 7.25%
16 | Cc1nc2c3ccccc3nc(NNC(=O)CCC(=O)N3CCN(c4ccccc4)CC3)n2n1 | inactive: -2.15%
17 | COc1ccc(CCNC(=O)CCc2c(C)nc3c(c(C)nn3-c3ccccc3)c2C)c(OC)c1 | inactive: 3.93%
18 | Cc1ccc(OCc2ccc(-c3nc(C#N)c(N4CCC(C)CC4)o3)o2)cc1 | inactive: 1.51%
19 | COc1ccc(-c2noc(N3CCN(c4cccc(C)c4C)CC3)n2)cc1OC | inactive: -17%
20 | CCc1cccc(C)c1NC(=O)C(C)Sc1nc2c(c(=O)[nH]1)CCCC2 (stereo not given) | inactive: 1.72%
21 | COc1ccccc1C(=O)Nc1nnc(SCc2cc(=O)n3ccc(C)cc3n2)s1 | inactive: 11.6%
22 | Cc1cc(C)cc(NC(=O)c2sc3nc(-c4cc5ccccc5oc4=O)[nH]c(=O)c3c2C)c1 | inactive: 2.27%
23 | COC(=O)c1c(C)sc(-c2c(-c3cccc(Cl)c3)[nH]c3c2c(=O)[nH]c(=O)n3C)c1O | inactive: -1.69%
24 | COc1ccc(C(=O)CN2C(=O)N(c3cc(C)ccc3C)S(=O)(=O)c3ccccc32)cc1 | inactive: -7.51%

Row | SMILES | activity change, negative = cytotoxicity
25 | CCc1ccccc1NC(=O)C1CCN(C2=NS(=O)(=O)C(c3ccc(C)c(C)c3)=C2C)CC1 | inactive: -1.9%
26 | CCOc1ccc(N(CC(=O)NCc2ccc(Cl)cc2)S(=O)(=O)c2c(C)noc2C)cc1 | inactive: 1.44%
27 | Cc1ccc(C(=O)Nc2ccc(OCc3cc(=O)n4c5c(sc4n3)CCCC5)cc2)cc1 | inactive: -3.88%
28 | Cc1c(NC(=O)c2ccc(N3CCC(C)CC3)c([N+](=O)[O-])c2)cccc1-c1nc2ccccc2o1 | inactive: -0.307%
29 | Cc1cccc(N2CCN(C(=O)c3oc(=O)c4ccccc4c3-c3ccccc3)CC2)c1C | inactive: 11.6%
30 | COCCCNC(=O)C1CCC(Cn2c(=O)c3sccc3n(Cc3ccc(F)cc3)c2=O)CC1 (stereo not given) | inactive: -8.74%
31 | Cc1cc(NC(=O)Nc2csc3c2CCCC3)ccc1Br | inactive: -2.66%
32 | CCOc1ccc(N(CC)C(=O)CSc2n[nH]c(-c3ccccc3)n2)cc1 | inactive: 3.53%
33 | Cc1ncc(CO)c2c1Oc1nc(-c3ccccc3)nc(SCC(=O)Nc3cccc(C(F)(F)F)c3)c1C2 | inactive: 4.89%
34 | CCn1cc(C(=O)NCc2ccccc2Cl)c(=O)c2cc(S(=O)(=O)N3CCCCC3)ccc21 | inactive: -0.654%
35 | Cc1ccccc1NC(=O)CN1C(=O)CCn2nc(-c3cccn3C)cc21 | inactive: -1.55%
36 | Cc1sc2c(c1C)c(=O)n(-c1cccc(C(F)(F)F)c1)c(=O)n2Cc1ccccc1C#N | inactive: 29.9%
37 | Cc1ccc(OCCCCn2c(CCNC(=O)C(C)(C)C)nc3ccccc32)cc1 | inactive: -9.67%
38 | O=C(Cc1ccccc1)Nc1cccc(-c2nc3cccnc3s2)c1 | inactive: 9.63%
39 | CC1=C(C(=O)Nc2cccnc2)C(c2ccccc2)n2nc(SCc3ccccc3F)nc2N1 (stereo not given) | inactive: -1.31%
40 | COc1ccc(-c2coc3c2c(C)cc2oc(=O)cc(C)c23)cc1 | inactive: -2.81%
41 | O=C(NC1CCCC1)c1ccc2c(c1)N(Cc1ccccc1F)C(=O)c1ccccc1S2 | inactive: -9.82%
42 | O=C(CSc1n[nH]c(-c2ccccc2Cl)n1)N1CCN(c2ccccc2F)CC1 | inactive: -0.0053%
43 | CCOC(=O)C1CCN(C(=O)Cn2ncc3c([nH]c4ccc(C)cc43)c2=O)CC1 | inactive: 19.3%
44 | CC(=O)N1CCC2(CC1)OC(=O)C(C)=C2C(=O)Nc1ccccc1C(F)(F)F | inactive: 11.2%
45 | Cc1cccc(N(CC(=O)NCCSc2ccc(Cl)cc2)S(=O)(=O)c2ccccc2)c1C | inactive: -21.4%
46 | Cc1cccc(C(=O)Nc2nc(-c3ccc(Br)cc3)ns2)c1 | inactive: 6.85%
47 | COc1cc(C(=O)N2CCc3c([nH]c4ccccc34)C2c2ccccc2)cc(OC)c1OC (stereo not given) | inactive: -28.6%
48 | Cc1ccc(C)c(N2CCN(C(=O)c3cc(S(=O)(=O)N4CCCC4)cn3C)CC2)c1 | inactive: 2.97%

Row | SMILES | activity change, negative = cytotoxicity
49 | COc1ccccc1CCNC(=O)Cn1ccc2cc(S(=O)(=O)N3CCCCCC3)ccc21 | inactive: -26.9%
50 | CCc1nnc(SCc2nc(-c3ccc(OC)cc3)oc2C)c2cc3sccc3n12 | inactive: 2.06%
51 | CCOC(=O)C1CCC(CN(Cc2c(Cl)cccc2Cl)S(=O)(=O)c2ccc(F)cc2)CC1 (stereo not given) | inactive: -8.68%
52 | CSc1ncc(C(=O)N2CCN(c3ccc(F)cc3)CC2)c(C)n1 | inactive: 11.6%
53 | COc1ccc(N2CCN(C(=O)c3ccc4c(c3)CCN4S(C)(=O)=O)CC2)cc1 | inactive: -2.69%
54 | CCSc1nc2c(c(=O)[nH]c(=O)n2C)n1CC(O)COc1ccc(Cl)cc1 (stereo not given) | inactive: -13.8%
55 | Cc1ccc(C)c(S(=O)(=O)c2nnn3c2nc(Nc2ccc(F)c(Cl)c2)c2sccc23)c1 | inactive: 0.301%
56 | Cc1nc(SCC(=O)Nc2ccc(Br)cc2)[nH]c(=O)c1Cc1ccccc1 | inactive: -0.588%
57 | CCc1ccc(OCC(=O)NCc2nc(-c3cccc(C)c3)no2)c(Br)c1 | inactive: 18%
58 | Cc1ccc2c(c1)N(C(=O)N1CCC(C(=O)NCc3ccco3)CC1)CC(C)O2 (stereo not given) | inactive: 3.63%
59 | Cc1ccc2nc(NC(=O)c3cc(=O)c4cc(Cl)ccc4o3)sc2c1 | inactive: 12.1%
60 | CCc1ccccc1NC(=O)CSc1nnc(CC)c(CC)n1 | inactive: -8.8%
61 | O=C(NCCc1ccc(Cl)cc1)c1ccc(CS(=O)(=O)Cc2ccccc2F)o1 | inactive: -29.2%
62 | CC(=O)N1CCc2c(sc3c2c(=O)n(-c2ccc(C)cc2)c(=O)n3CC(=O)Nc2ccccc2)C1 | inactive: -4.02%
63 | CCOc1ccc(-c2c(C)nn3c(C)c(C(=O)NCc4ccc(C)o4)cnc23)cc1OCC | inactive: 9.12%
64 | CC(C)c1ccc(Nc2c(-c3ccccc3O)nc3cnccn23)cc1 | inactive: -9.11%
65 | COC(=O)c1c(NC(=O)c2ccccc2C(=O)O)sc2c1CCCC2 | inactive: -4.51%
66 | Cc1ccc(-c2cc(C(=O)NCc3ccccc3)c3c(-c4ccc(C)cc4)[nH]nc3n2)cc1 | inactive: -1.48%
67 | COc1ccc(Cn2ccc3nc(C)c(C(=O)Nc4ccc(C)c(F)c4)cc3c2=O)cc1 | inactive: 5.53%
68 | COc1ccccc1NC(=O)c1c(NC(=O)c2ccccc2F)sc2c1CCC2 | inactive: -1.66%
69 | COc1ccc(NC(=O)c2nnn(Cc3ccc(Br)cc3F)c2N)c(OC)c1 | inactive: 4.91%
70 | O=C(C1CCN(S(=O)(=O)c2cccc3nonc23)CC1)N1CCN(c2ccccc2)CC1 | inactive: 19.2%
71 | CCOc1ccc(CNC(=O)c2ccc(CS(=O)c3ccccc3)o2)cc1 (stereo not given) | inactive: 3.41%
72 | COc1ccc(N2CCN(C(=O)c3nc(-c4ccc(Cl)cc4)n4c3CCCCC4)CC2)cc1 | inactive: -2.61%

Row | SMILES | activity change, negative = cytotoxicity
73 | Cc1ccc(-n2c(SCC(=O)Nc3cccc(Cl)c3)nc3n[nH]c(C)c3c2=N)cc1 | inactive: -14%
74 | Cc1ccc(N2CC(NC(=O)c3ccc4c(c3)OCO4)CC2=O)cc1 (stereo not given) | inactive: 7.5%
75 | CC(=O)N1CCCc2ccc(NS(=O)(=O)c3ccc(F)cc3F)cc21 | inactive: -1.4%
76 | Cc1ccccc1NC(=O)Cn1nc(-c2ccc(F)cc2)c2cnc3ccccc3c21 | inactive: 6.98%
77 | CS(=O)(=O)N1CCc2cc(C(=O)N3CCN(c4ccc(F)cc4)CC3)ccc21 | inactive: -9.22%
78 | CCc1ccc(NC(=O)c2ccc3c(c2)nnn3CC)cc1 | inactive: -9.43%
79 | Cc1c(Cl)cccc1-n1ncc(C(=O)Nc2ccc3c(c2)OCCO3)c1C1CCN(C(=O)OC(C)(C)C)CC1 | inactive: -2.17%
80 | Cc1ccccc1OCC(=O)OCc1cc(=O)n2ccsc2n1 | inactive: 2.16%
81 | Cc1ccc2cc3cc(C(=O)Nc4ccc(F)cc4Cl)oc3nc2c1 | inactive: -6.75%
82 | Cc1ccc(-n2nc3c(N4CCC(C(=O)NC(C)C)CC4)nnc(C)c3c2C)cc1 | inactive: -23.1%
83 | Cc1cc(C)cc(NC(=O)c2cc(S(=O)(=O)N3CCCCCC3)cn2C)c1 | inactive: 3.73%
84 | Cn1c(SCc2ccc(F)cc2)nc2ccc(C(=O)NCc3ccc(F)cc3)cc21 | inactive: 27%
85 | Cc1nn(CC(=O)NC2CC2)c(=O)c2cc3ccccc3n12 | inactive: 6.14%
86 | CCC1CN(C(=O)N2CCC(C(=O)NCc3ccc(OC)cc3OC)CC2)c2cc(C)ccc2O1 (stereo not given) | inactive: -5.71%
87 | Cc1ccc(NC(=O)Cn2c(-c3ccc4c(c3)OCO4)cn(-c3ccccc3)c2=O)cc1C | inactive: -24%
88 | COC(=O)c1ccc(Nc2ncnc3c2nc2n3CCCC2)cc1 | inactive: -26.9%
89 | CCOc1ccc(C(=O)NCCn2cc(SCC(=O)NCCc3ccc(OC)c(OC)c3)c3ccccc32)cc1 | inactive: 16.8%
90 | CCOc1ccccc1NC(=O)C1CCN(S(=O)(=O)c2c(C)noc2/C=C/c2ccc(C)cc2)CC1 | inactive: -2.76%
91 | CCOC(=O)N1CCN(C(=O)CN(c2cccc(Cl)c2C)S(=O)(=O)c2ccc(C)cc2)CC1 | inactive: -17.8%
92 | O=C(Nc1ccccc1)c1cccc2c(=O)c3c([nH]c12)CCCC3 | inactive: 1.75%
93 | COc1ccccc1-c1nc(-c2ccc(Br)o2)no1 | inactive: -22.3%
94 | Cc1cccc(-n2c(SCC(N)=O)nc3c(oc4ccccc43)c2=O)c1 | inactive: 19.6%
95 | COc1ccccc1OCCn1cc(C(=O)c2cccs2)c2ccccc21 | inactive: -9.83%
